# Reference: PubChem BioAssay AID488969 (Vanderbilt High Throughput Screening Facility, 2010)
# In all, about 110,000 compounds were measured (“z-score”: median about -0.1, highest 2% from about 2 on). Some of the results follow. Calls of active or inactive are those of the source.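 How the source made its calls: active means z-score in the third read window above 3 or below -3; inactive means the rest.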
# Molecular target: Metabotropic glutamate receptor 8 (Rattus norvegicus) (UniProt P70579)
# Test: mGluR8 Gi/Go-coupled signaling modulation – cell-based, rat, thallium flux, HTS, primary screen (AID 488969)
# Settings: HEK293 rat mGluR8, GIRK (G protein-gated inwardly rectifying potassium channel) thallium flux, FluoZin2; at 10 µM; stronger effect = higher value; submaximal glutamate (EC20) added with thallium
# Chain of UniProt P70579 (P70579 whole entry, looked up): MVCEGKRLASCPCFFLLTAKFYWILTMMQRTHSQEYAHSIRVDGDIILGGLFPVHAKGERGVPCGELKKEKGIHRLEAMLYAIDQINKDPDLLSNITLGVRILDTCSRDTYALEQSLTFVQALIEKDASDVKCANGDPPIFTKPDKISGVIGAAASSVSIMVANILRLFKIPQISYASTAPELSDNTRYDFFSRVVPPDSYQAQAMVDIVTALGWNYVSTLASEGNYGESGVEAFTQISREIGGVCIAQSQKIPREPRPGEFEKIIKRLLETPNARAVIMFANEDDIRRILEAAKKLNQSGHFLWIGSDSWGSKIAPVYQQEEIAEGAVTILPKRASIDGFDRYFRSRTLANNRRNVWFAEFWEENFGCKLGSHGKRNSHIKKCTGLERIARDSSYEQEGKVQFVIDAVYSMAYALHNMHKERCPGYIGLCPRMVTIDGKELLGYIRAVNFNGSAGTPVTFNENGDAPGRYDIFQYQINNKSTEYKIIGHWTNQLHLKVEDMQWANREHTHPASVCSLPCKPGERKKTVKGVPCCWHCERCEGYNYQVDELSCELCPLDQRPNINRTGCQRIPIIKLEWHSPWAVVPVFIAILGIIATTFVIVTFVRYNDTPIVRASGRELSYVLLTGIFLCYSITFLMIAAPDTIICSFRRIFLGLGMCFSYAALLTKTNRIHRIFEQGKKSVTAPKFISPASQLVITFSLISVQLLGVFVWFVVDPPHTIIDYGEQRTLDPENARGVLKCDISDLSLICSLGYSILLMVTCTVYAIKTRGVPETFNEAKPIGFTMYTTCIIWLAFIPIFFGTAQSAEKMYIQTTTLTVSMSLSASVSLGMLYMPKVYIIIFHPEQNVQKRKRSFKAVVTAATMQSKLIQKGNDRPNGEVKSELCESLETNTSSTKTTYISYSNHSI
row,Compound,z-score
1,CCCCOCCCNS(=O)(=O)c1ccccc1,0.69
2,CC(C)(Oc1cccc2ccccc12)C(=O)O,-0.0885
3,CC(C)(C)C1CCC(C(=O)OCC(=O)c2ccc[nH]2)CC1 (stereo not given),-0.197
4,O=S(=O)(/N=C(\Sc1ccc(Cl)cc1)c1ccccc1)c1ccccc1,-0.32
5,CCC(=O)Nc1c2c(nn1-c1ccc(OC)cc1)CS(=O)C2 (stereo not given),-0.0413
6,CCc1ccccc1NC(=O)Cc1ccc(-n2cccc2)cc1,-0.166
7,CCCn1c(Cc2ccccc2)n[nH]c1=S,1.55
8,COc1cc(S(=O)(=O)NCc2cccnc2)c(OC)cc1Br,-0.11
9,COc1cc(/C=C2\SC(=S)N(CC(=O)Nc3ccccn3)C2=O)cc(OC)c1OC,-0.0617
10,COc1ccc(-c2[nH]c(-c3cccc(OC)c3)nc2SCC(=O)NCc2ccco2)cc1,-0.891
11,CC1CC2(CC(C)(C(=O)CSc3n[nH]c(-c4ccccc4Cl)n3)OC2=O)C(=O)O1 (stereo not given),0.36
12,Cc1cccc(NC(=O)c2cc(Cl)nc3ccccc23)c1,-0.228
13,COc1ccc(C(c2c(O)nc(SC)n(C)c2=O)c2c(O)nc(SC)n(C)c2=O)cc1O,-0.292
14,CCCCNCc1cc(Br)c(OCC(=O)N2CCOCC2)c(OC)c1,-0.31
15,COC(=O)c1sc2nc(C)c([N+](=O)[O-])c(C)c2c1N,-0.272
16,CCNC(=O)/C(C#N)=C/c1c(N2CC(C)OC(C)C2)nc2ccccn2c1=O (stereo not given),-0.338
17,Cc1occc1-c1nnc(SCC(=O)c2c(N)n(Cc3ccccc3)c(=O)n(C)c2=O)n1C,-0.00309
18,CC(=O)NC(CCS(C)(=O)=O)C(=O)Nc1cccc2ccccc12 (stereo not given),0.39
19,COn1c(C)c(C(C)=O)c2c3no[n+]([O-])c3ccc21,0.967
20,N#CCC1c2ccccc2CCN1C(=O)Nc1cccc(Cl)c1 (stereo not given),-0.443
21,O=C(Nc1ccc(N2CCOCC2)c(Cl)c1)c1ccc(Br)o1,0.575
22,Cc1noc(C)c1C(=O)N1CCN(Cc2ccccc2)CC1,0.378
23,CCCNC(=O)NCc1ccc(N2CCCC2=O)cc1,0.113
24,COc1ccc(-c2cn3c(n2)CCC3)cc1,-0.12

row,Compound,z-score
1,Cc1cccc(NC(=O)CSc2ccc(-c3ccco3)nn2)c1C,0.521
2,CCN1C(=O)C2(C(C#N)=C(N)Oc3n[nH]c(C(C)C)c32)c2ccccc21 (stereo not given),-0.0791
3,O=C(NCCN1CCOCC1)c1ccc2ccccc2c1,0.278
4,COc1ccccc1OCCNC(=O)c1ccccc1C,-0.299
5,CCOc1cc(C(=O)NC(=S)Nc2cccnc2)cc(OCC)c1OCC,-0.0263
6,CCOC(=O)c1c(-c2ccccc2Cl)csc1NC(=O)c1cc(S(=O)(=O)N2CCOCC2)ccc1C,0.00234
7,Cc1ccc(-n2c(C)cc(/C=C3/C(=N)N4C(c5ccccc5)=CSC4=NC3=O)c2C)cc1,-0.126
8,C/C(=N\NS(C)(=O)=O)c1ccccc1,-0.114
9,CCc1cccc(C)c1N(C(=O)Cn1c(COC)nc2ccccc21)C(C)COC (stereo not given),-0.328
10,O=C1NCCN1Cc1ccc(F)cc1,-0.0461
11,CC(C)C(NC(=O)c1ccc(S(=O)(=O)N2CCOCC2)cc1)c1nc2ccccc2[nH]1 (stereo not given),1.1
12,CCOC(=O)c1ccc(COC(=O)c2ccc(-c3nnc(-c4ccccc4)o3)cc2)o1,0.116
13,CCOc1ccc2nc(NCCNS(=O)(=O)c3ccccc3)c(C#N)cc2c1,-0.304
14,Cc1nn(-c2ccccc2)c(Cl)c1/C=N/NC(=O)OC(C)(C)C,-0.394
15,Cn1nccc1C(=O)Nn1cnnc1,0.137
16,Cc1ccc(NC(=O)C(CC(C)C)NC(N)=O)cc1Cl (stereo not given),0.139
17,COc1cc(S(=O)(=O)N2CCC(N3CCCCC3)CC2)ccc1-n1cnnn1,0.00551
18,C=CCn1c(=N)n(CC(O)COc2ccccc2OC)c2ccccc21 (stereo not given),1.12
19,COc1cc(C2C(C#N)=C(N)Oc3n[nH]c(C)c32)ccc1OC(=O)c1ccccc1 (stereo not given),-0.446
20,COc1ccc2c(c1)c1nc3ccccc3nc1n2CCn1c(=O)oc2ccccc21,0.00373
21,O=c1[nH]c(CS(=O)(=O)c2ccccc2)nc2ccccc12,active: 3.08
22,O=C(Oc1cccc(C(=O)N2CCOCC2)c1)c1ccc(Br)cc1,0.508
23,CN(CCc1ccccn1)C(=O)Nc1ccc(F)cc1,-1.46
24,Cc1nn(CCc2n[nH]c(=S)n2-c2ccc(F)cc2)c(C)c1[N+](=O)[O-],-0.132

row,Compound,z-score
1,C=CCn1c(-c2csc(-c3ccc(Cl)cc3)n2)n[nH]c1=S,2.89
2,COc1cccc(NC(=O)Cn2c(=O)n(CC3CCCO3)c(=O)c3ccccc32)c1 (stereo not given),-0.419
3,CCS(=O)(=O)NCCc1ccc(OC)c(OC)c1,0.0325
4,COC(=O)c1nc2n(n1)C(c1ccc(OC)c(OC)c1)C(C(=O)OC1CCCCC1)=C(C)N2 (stereo not given),-0.853
5,COc1ccc(OC)c(NC(=O)C23CC4CC(C2)CC(n2cnc(Br)n2)(C4)C3)c1,0.992
6,Cc1c(/C(O)=C2/C(=O)C(=O)N(Cc3cccnc3)C2c2cccs2)cnn1-c1ccccc1 (stereo not given),0.632
7,O=C(NCc1ccc2c(c1)OCO2)C1CC(c2cccc(Br)c2)=NO1 (stereo not given),-0.0926
8,CC(=O)N1CCC(N(CCCOC(C)C)C(=O)Nc2ccc(Cl)cc2)CC1,-0.311
9,O=C(NNC(=O)c1cc2cc3ccccc3nc2s1)c1cccc(C(F)(F)F)c1,0.241
10,O=C(COC(=O)Cc1c[nH]c2ccccc12)Nc1cccc2ccccc12,0.055
11,O=c1nc(NCc2ccccc2Cl)cn[nH]1,0.66
12,O=S(=O)(c1cnc[nH]1)N1CCN(c2ccccc2)CC1,0.277
13,NC(=O)C1CCN(C(=O)c2ccc(CS(=O)(=O)c3c(Cl)cccc3Cl)o2)CC1,-0.074
14,CC(C)CCN1CC(O)=C(c2nc(-c3ccc(Cl)cc3)cs2)C1=N,0.053
15,CCC(C)(C)NC(=O)C(OC(=O)c1ccco1)c1ccccc1OC (stereo not given),-0.233
16,Cc1ccccc1CCN(C(=O)Cn1nnc2ccccc21)C(C(=O)NC(C)(C)C)c1ccsc1 (stereo not given),0.0716
17,COc1ccccc1NC(=O)CN1CCN(CC(=O)Nc2cc(NC(C)=O)ccc2OC)CC1,-0.411
18,O=C(CS(=O)(=O)Cc1ccccc1)Nc1nc2c(s1)CCCC2,0.14
19,O=C(NCc1cccnc1)c1cccc(F)c1,-0.0596
20,COc1ccccc1N1CCN(C(=O)c2cc(-c3ccc(Cl)cc3)on2)CC1,0.953
21,COC(=O)COc1cccc(NC(=O)c2ccc(C)cc2)c1,-0.0433
22,CS(=O)(=O)c1nc(-c2ccccc2)c(-c2ccccc2)[nH]1,-0.431
